According to PubChem BioAssay AID1508624 (National Center for Advancing Translational Sciences (NCATS), 2021):
The whole screen tested about 48,000 compounds, of which about 120 (0.25%) were called active. Roughly 4% stayed inconclusive and do not appear here. The call rests on the fitted dose curve; in most records, active means well fitted activation curve with a large enough effect; inconclusive means small, poorly fitted or top-dose-only effect, or another doubt; inactive means no such curve, though single readings can be large or run the other way. Some of the results follow.

assay: Primary qHTS for Identification of Small Molecule Activators of Huntingtin-Antisense Promoter Activity; conditions: HEK293 HTT-AS promoter firefly luciferase reporter (activity 0% = vehicle and -100% = no light), 24 h; series mostly up to 57.5 µM; activity change, positive = activation: at the top concentration; further: nearly all actives have a fitted effect of over 55% in size
Outline: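 Quantitative HTS used concentration series of up to 57.5 uM final on HEK293 luciferase reporter cells, 24 h at 37 degrees C. Readout was Dual-Glo firefly luminescence.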

Activity change, positive = activation, inactive:
Cc1cc(C)cc(-n2ccn(Cc3ccccc3C)c(=O)c2=O)c1 -2.47%, COc1ccc2c(c1)Cc1sc(NC(=O)c3cccc(C)c3)nc1-2 -5.74%, COC(=O)CSc1nc2sc3c(c2c(=O)n1-c1ccccc1C)CC(C)(C)OC3 -3.51%, CCc1ccc(NS(=O)(=O)c2cc(-c3cnc(C4CC4)o3)ccc2C)cc1 -36.2%, Cc1ccc(OCC(=O)OC2=C(C(=O)c3ccccc3)N(C)S(=O)(=O)c3ccccc32)cc1 -21.4%, Cc1oc(-c2ccc(C(=O)NCCC(C)C)cc2)nc1CN1CCc2ccccc21 -46.5%, COc1ccccc1CNS(=O)(=O)c1ccc(-c2cnc(C3CC3)o2)cc1 -36.8%, COCCNC(=O)c1c[nH]c2ccc(S(=O)(=O)Nc3ccc(F)cc3F)cc2c1=O 0.192%, Cn1ccc2c(OCC(=O)NCc3ccccc3)cccc2c1=O -21.1%, CC(C)c1nn2c(=O)cc(COC(=O)c3cccc(NC(=O)c4cccs4)c3)nc2s1 -8.57%, CCc1ccc(C2=NN(CCC(=O)NCCc3ccc(OC)c(OC)c3)C(=O)CC2)cc1 -14.6%, CCCOc1ccc(-c2nonc2NC(=O)c2cc(OC)c(OC)c(OC)c2)cc1OCCC -23.7%, Cc1ccc(N2CC(NC(=O)c3cc4ccccc4o3)CC2=O)cc1C (configuration not stated) -11.6%, CCc1ccccc1NC(=O)CCOc1ccccc1 -21.2%, CCc1ccccc1NC(=O)Cn1c(=O)n(-c2ccc(CC(=O)NCC3CCCO3)cc2)c(=O)c2ccccc21 (configuration not stated) -14.8%, COc1ccc(CSc2nc3ccncc3n2CC(=O)Nc2ccc(C)c(F)c2)cc1 18.9%, COc1ccc(CNC(=O)c2ccc3c(c2)N(Cc2ccc(C)cc2)CCS3)cc1 -19.7%, CCOC(=O)c1cnc2nc(NCc3cccc(Br)c3)[nH]n2c1=O -18.8%, Cc1ccc(Nc2c(-c3ccsc3)nc3c(C)cccn23)cc1 22.5%, COc1ccccc1CNC(=O)Cn1ncn2c(cc3sccc32)c1=O -7.5%, COc1ccc(S(=O)(=O)NCc2cccn2Cc2cccc(C)c2)cc1 -10%, COc1ccccc1NC(=O)CC(c1cc(OC)c(OC)c(OC)c1)N1Cc2ccccc2C1=O (configuration not stated) -14.2%, CCCCCSc1nc2sc3c(c2c(=O)n1-c1ccc(OC)cc1)CCN(C(C)=O)C3 -47.8%, Cc1c(C)n(C)c2ccc(C(=O)NCc3cccc(F)c3)cc12 -3.6%, CCOC(=O)CSc1nnc2n(-c3ccccc3)c(=O)c3c4c(sc3n12)CC(C(C)(C)C)CC4 (configuration not stated) -4.64%, COc1cc2c(cc1NC(=O)COc1ccc(Cl)cc1Br)oc1ccccc12 16.1%, O=S(=O)(Nc1cccc(C(F)(F)F)c1)c1ccc(-c2cnc(C3CC3)o2)cc1 -49.8%
